Experimental data from paper PMC12622447.
These are yes or no findings as the source states them, for the method shown. In cells and extracts the contact can be indirect. Some binding calls cover weakened binding; strength is not graded here.

Protein sequences, listed by entry. Tags and fused reporters are not part of them. Lines headed by an entry give the natural chain unless they say otherwise; changes in a name come on top. Chains listed by the source or under a name are the forms on record and can include a tag or linker. Residues count along the entry.
UniProt P60842: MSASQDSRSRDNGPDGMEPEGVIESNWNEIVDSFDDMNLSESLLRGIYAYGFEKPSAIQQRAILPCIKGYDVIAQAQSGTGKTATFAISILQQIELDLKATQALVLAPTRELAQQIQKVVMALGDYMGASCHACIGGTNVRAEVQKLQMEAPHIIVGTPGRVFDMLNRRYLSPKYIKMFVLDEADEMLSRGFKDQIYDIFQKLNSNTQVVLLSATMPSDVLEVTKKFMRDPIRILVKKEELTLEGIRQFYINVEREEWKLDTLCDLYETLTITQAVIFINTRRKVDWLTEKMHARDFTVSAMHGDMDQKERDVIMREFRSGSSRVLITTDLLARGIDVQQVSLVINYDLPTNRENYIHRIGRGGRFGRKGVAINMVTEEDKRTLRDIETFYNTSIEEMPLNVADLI
UniProt P06730: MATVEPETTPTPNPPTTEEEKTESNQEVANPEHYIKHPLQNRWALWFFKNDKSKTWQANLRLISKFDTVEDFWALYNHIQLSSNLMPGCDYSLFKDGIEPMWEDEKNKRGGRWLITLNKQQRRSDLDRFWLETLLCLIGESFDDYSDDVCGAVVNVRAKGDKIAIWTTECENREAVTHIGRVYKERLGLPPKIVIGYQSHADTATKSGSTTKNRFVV
UniProt Q99816: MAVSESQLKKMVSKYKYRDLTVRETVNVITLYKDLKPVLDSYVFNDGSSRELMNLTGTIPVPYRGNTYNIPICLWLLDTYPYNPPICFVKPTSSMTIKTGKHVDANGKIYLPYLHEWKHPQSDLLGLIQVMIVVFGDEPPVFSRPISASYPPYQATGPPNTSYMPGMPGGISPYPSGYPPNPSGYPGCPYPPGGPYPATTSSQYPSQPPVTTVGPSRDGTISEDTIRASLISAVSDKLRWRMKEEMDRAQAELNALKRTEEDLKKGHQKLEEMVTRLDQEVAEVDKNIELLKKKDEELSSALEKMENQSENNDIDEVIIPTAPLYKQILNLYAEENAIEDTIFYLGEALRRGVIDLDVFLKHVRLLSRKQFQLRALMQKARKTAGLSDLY
TSG101-UEV-GFP: residues 2-145 of Q99816
TSG101-UEV N45A mutant (Q99816, form named): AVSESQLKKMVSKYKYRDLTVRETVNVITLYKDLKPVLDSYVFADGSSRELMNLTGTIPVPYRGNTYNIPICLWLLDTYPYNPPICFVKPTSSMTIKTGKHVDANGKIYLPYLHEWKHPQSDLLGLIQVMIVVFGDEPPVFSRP
TSG101-UEV M95A mutant (Q99816, form named): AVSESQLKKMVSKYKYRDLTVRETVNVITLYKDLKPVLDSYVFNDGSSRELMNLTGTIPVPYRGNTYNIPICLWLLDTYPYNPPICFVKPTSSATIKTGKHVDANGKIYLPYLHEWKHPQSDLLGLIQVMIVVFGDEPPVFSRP

Experiments:
[1] = molecular target: eIF4A1-GFP fusion protein (UniProt P60842); assay: co-IP; GFP-Trap: cleared lysates of OVCAR8 cells stably expressing GFP fusion proteins or TSG101 variants incubated with GFP-nanobody agarose; beads washed with ice-cold Co-IP washing buffer, eluted by boiling, western blotting
[2] = molecular target: eIF4E-GFP fusion protein (UniProt P06730); assay: as above
[3] = molecular target: TSG101 (ESCRT-I component) (human (endogenous in OVCAR8)) (UniProt Q99816); assay: proximity ligation; DuoLink In Situ Red kit Mouse/Rabbit on fixed OVCAR8 cells; primary antibodies for eIF4E, eIF4A1 and TSG101 overnight at 4 °C; confocal microscopy, red dots counted
[4] = molecular target: TSG101-UEV N45A mutant (UniProt Q99816); assay: co-IP; GFP-Trap: cleared lysates of OVCAR8 cells stably expressing GFP fusion proteins or TSG101 variants incubated with GFP-nanobody agarose; beads washed with ice-cold Co-IP washing buffer, eluted by boiling, western blotting
[5] = molecular target: TSG101-UEV M95A mutant (UniProt Q99816); assay: as above
[6] = molecular target: TSG101-UEV-GFP (UniProt Q99816); assay: as above
[7] = molecular target: TSG101-GFP fusion protein (UniProt Q99816); assay: as above

binding [1]	binding [2]	binding [3]	binding [4]	binding [5]	binding [6]	binding [7]	Substance
binds	binds	–	–	–	–	–	TSG101 (ESCRT-I component) (from UniProt Q99816 1-390)
–	–	binds	no binding	binds	binds	binds	eIF4A1 (from UniProt P60842 1-406)
–	–	binds	no binding	binds	binds	binds	eIF4E (from UniProt P06730 1-217)
